# Measured values from ChEMBL document CHEMBL4888484, “Replenishing the malaria drug discovery pipeline: Screening and hit evaluation of the MMV Hit Generation Library 1 (HGL1) against asexual blood stage Plasmodium falciparum ,using a nano luciferase reporter read-out” (2022).
# In all, about 150,000 compounds went through this assay and about 540 (0.36%) showed an effect of 50% or more. This is one part of the list.
# Tested on: Plasmodium falciparum
# Assay: Primary screen in NF54 nanoGlo assay, in single point, at 2uM, 72h; a lower Z score goes with more inhibition
# Assay type: functional, Erythrocyte
# Conditions: timepoint 72 hour
Compound,% Inhibition,Z score
CC[C@@H](C(=O)N(C)c1oc(C)nc1C#N)c1ccc(F)cc1,-10%,1.71
Cc1nn(C)cc1NC(=O)CN1CCc2n[nH]cc2C1,-5%,0.64
Cc1nn(-c2ccccc2)c(C)c1-c1n[nH]c(C(=O)O)c1Br,15%,-1.9
N#Cc1ncccc1N1CCC(C(F)(F)F)CC1,3%,-0.37
Cc1c(CN2C[C@H](OC(C)C)[C@@H](O)C2)cc(C#N)n1C,0%,-0.03
CS(=O)(=O)NC1(CC2CC2)CCN(S(=O)(=O)c2ccccc2)CC1,-7%,1.39
c1ccc(-n2ncc3c(N4CCCCCC4)nnnc32)cc1,-16%,2.37
CCCS(=O)(=O)N(C)Cc1ccc(Br)c(F)c1,-17%,3.13
CC(C)c1cc(C(=O)N[C@H]2CCN(Cc3cscn3)C[C@@H]2O)no1,0%,0.06
Cc1csc(C(=O)NCC2CCCC23NC(=O)NC3=O)c1Cl (stereo not given),-10%,1.01
O=C(C1CCCC1)N1CCN(c2nc3cccnc3o2)CC1,3%,-0.36
C[C@H](NC(=O)C(C)(C)N1CCCC1)c1ccc(O)c(F)c1,4%,-0.77
O=C(Cc1ccc(Cl)cc1)Nc1ccc(-c2nc3cc(Cl)ccc3o2)cc1,-3%,0.44
Cc1nnc(CNC2CCCC(C)C2C)s1 (stereo not given),-7%,0.84
CCC(=O)Nc1cccc(OCC(=O)N2[C@@H]3CC[C@H]2CNC(=O)C3)c1,9%,-1.15
Cc1csc(C#CCNC(=O)OC(C)(C)C)n1,-8%,1.23
CCNC(=O)c1csc(COc2ccc3c(c2)[C@H](c2ccc(C)cc2)N(C(=O)CC(C)C)CC3)n1,32%,-4.94
O=S(=O)(NCc1cn2c(n1)CCCC2)C1COC1,-6%,1.13
CC(=O)N1CCc2cc(S(=O)(=O)N3CCC(CC(=O)Nc4ccc(C)c(Cl)c4)CC3)ccc21,5%,-0.82
COc1ccc(NC(=O)Cn2cnc3nc(N4CCCCC4)ncc3c2=O)cc1OC,9%,-1.7
COc1ccccc1CC(C)(C)NC(=O)c1cc(C(=O)O)ccn1,1%,-0.21
Cc1ccc(C)c(C2CC3CC2C2C(=O)N(c4cccc(Cl)c4)C(=O)C32)c1 (stereo not given),7%,-0.84

Compound,% Inhibition,Z score
CNS(=O)(=O)N1CCN(c2ncnc3c2ncn3C2CC2)CC1,-7%,1.5
Cc1cc(C(=O)NCC(C)(C)C2(O)CCOCC2)nn1C(C)C,-14%,1.74
Nc1ccc(Br)c(F)c1N,-7%,0.88
CC1CC(NC(=O)N(C)CCOCC2CC2)C1 (stereo not given),-17%,2.67
COCCCN(C(=O)c1nc(C)sc1C)C1CCN(C)CC1,0%,0.06
CC(=O)CC(=O)NC(=N)c1ccccc1,7%,-0.8
O=C(c1ccc(O)nc1)N1CCC[C@@H]1CN1CCc2ccccc21,4%,-0.71
O=C(NCc1cccc2c1OCC2)N[C@H]1CC12CCOCC2,-16%,1.68
Cc1ccc(CCC(=O)N[C@H]2CCOC[C@H]2C2CCOCC2)cc1C,-7%,1.34
CCC(Oc1ccc2c(c1)C(c1ccccc1)N(Cc1cccc(C)c1)CC2)C(=O)NCC1CC1 (stereo not given),19%,-2.31
CC(C)(C)C(=O)N1CCC(Oc2nncs2)CC1,-9%,1.42
COc1ccccc1N1CCN(C(=O)CN(C)c2ccccc2)CC1,1%,-0.14
O=C1C[C@H]2CC(c3nc(-c4cc(F)cc(Br)c4)no3)[C@@H]1C2 (stereo not given in full),5%,-0.89
CCc1cccc(NC(=O)[C@@H]2Cn3cccc3C(=O)N2)c1,2%,-0.27
CCCN1C(=O)c2ccccc2N2C(=O)CC[C@@]12C(=O)Nc1ccccc1,88%,-14.36
Cc1cc(-c2nc(-c3c(C)noc3C)cs2)ccc1F,3%,-0.51
Cc1ccoc1C(=O)NC1CCN(CC2(O)CCC(C)CC2)CC1 (stereo not given),-21%,3.86
COCCCn1c(C(=O)NC(C)C)nnc1N1CC[C@@H](OC)C1,-4%,0.55
O=S(=O)(N[C@H]1CCN(Cc2ccccc2)C1)N1CCOCC1,2%,-0.18
O=C(c1nc2ccccc2[nH]1)N1CCC(c2nccn2Cc2ccccc2)CC1,-7%,0.91
COc1ccc(NC(=O)C2C3NC(=O)NC2(C)Oc2ccc(Cl)cc23)cc1 (stereo not given),-11%,2.04
CC(C)(Cc1ccc(O)cc1)C(=O)NCc1ccc2[nH]cnc2c1,10%,-1.15

Compound,% Inhibition,Z score
C#CCNS(=O)(=O)N1CCN(Cc2ccc3ncccc3c2)CC1,1%,-0.15
CC(O)C1CN(C(=O)Nc2nc(C3CC4CCC3C4)cs2)CCO1 (stereo not given),9%,-1.18
Cc1onc(N)c1S(=O)(=O)NC1CCCCC1,-18%,1.56
CS(=O)(=O)N1CCN(C(=O)NCCn2cc(-c3ccoc3)cn2)C1=O,-12%,2.34
CCC(=O)Nc1ccc(Oc2c(C)c(C(=O)O)nn2-c2ccccc2CC)c(S(=O)(=O)NCC(C)C)c1,97%,-9.77
O=C(Nc1ccccc1F)N[C@@H]1C[C@H]1CO,-18%,1.84
CCc1nc(CNC(=O)c2cc(C(F)F)nn2C)cs1,3%,-0.51
Cc1cc(NC(=O)Cn2ccc(-c3c(C)nn(C)c3C)n2)n(C)n1,-6%,0.72
CCN(CC)CCN(CC)C(=O)c1cccc(-c2ccc(C)nc2N)c1,-7%,0.71
CNC(=O)Cc1noc(-c2cc(C)oc2C)n1,-2%,0.18
Cc1nc(N)ncc1C(=O)N[C@H]1COCC[C@@H]1OCc1ccccn1,-8%,1.32
Cc1cc(C)cc(NC(=O)C2CCN(C(=O)c3nnn4cc(C)[nH]c(=O)c34)CC2)c1,-5%,1.01
Cc1noc(C)c1CN(C)C(=O)N[C@@H](C)c1ccc(F)cc1,-15%,1.31
COCc1nc(OC)cc(N2CCC(C(N)=O)(c3ccccc3)CC2)n1,1%,-0.09
CCc1cc2c(cc1[C@@H](O)C[n+]1ccccc1)C(C)(C)CCC2(C)C,35%,-3.93
COCCN1CC2(CCC1=O)CCN(Cc1nncn1C(C)C)CC2,-2%,0.33
O=C(O)[C@H]1c2nc[nH]c2CCN1Cc1cnc(NCc2ccccc2)nc1,5%,-0.56
O=C(c1ccc2[nH]ccc2c1)N1C2CCC1CC(=C1CC1)C2,11%,-1.5
CC(C)C[C@H](N)C(=O)N(C)Cc1ccccc1,-12%,1.57
CCC1(CNC(=O)NC2CC3CCC2O3)CC1 (stereo not given),-8%,0.88
O=S(=O)(NC1C2Cc3ccccc3C21)c1ccc2c(c1)OCCO2 (stereo not given),-2%,0.32
C[C@@]1(C(=O)NC2CCCC2)CCC(=O)N1Cc1cccc(Br)c1,-2%,0.18

Compound,% Inhibition,Z score
CCCCC1CCC(c2nc(N)n[nH]2)CC1 (stereo not given),-8%,1.09
CCn1nc(C)c(-c2ccc(N(C)C)nc2)c1C,-6%,1.2
O=C(O)c1cccc(C(=O)N2CCn3cc(C(=O)Nc4ccccc4)nc3[C@H]2c2ccccc2)c1,-15%,2.26
O=C(Cc1csc(Cc2cccc(Cl)c2)n1)Nc1ccc(N2CCOCC2)nc1,-6%,0.85
Cc1ccc(N2CCC(NCCCn3cccn3)CC2)cc1Cl,-5%,0.81
O=C(COc1ccccc1-c1nnc(-c2ccccc2)o1)Nc1ccc(Cl)cc1F,-10%,1.1
Cc1c(C)[n+]([O-])c([C@@H](c2ccccc2OCC(=O)O)C2C(=O)OC(C)(C)OC2=O)n1Cc1ccccc1,-5%,0.67
COc1ccc(-c2ccc3nc(-c4cc(C)ccc4C)oc3c2)c(OC)c1OC,1%,-0.25
Cc1cccc(C[C@H](C)NS(C)(=O)=O)n1,-12%,1.15
COc1ccc(Oc2cc(CNC(=O)N[C@@H](C)c3c(C)nn(C)c3C)ccn2)cc1,8%,-1.08
CCc1[nH]nc(-c2ccsc2)c1NC(=O)c1ccccc1,-11%,1.86
COc1ccc(Cn2c(C)cnc2[C@@H]2CCCN2Cc2cnn(C)c2)cc1,-11%,1.41
CCN1CCN(CC(=O)N2N=C(c3ccc(C)c(C)c3)C[C@H]2c2ccccc2OC)CC1,-8%,1.28
O=C([C@@H]1CCCCN1c1cc(C(F)(F)F)nc(-c2ccncc2)n1)N1CCOCC1,1%,-0.23
CCN(CC)c1cc(CCC(=O)NC)ccn1,-9%,1.1
Cc1nnsc1CNC(=O)N1CCn2nc(C#N)cc2C1,-3%,0.31
O=C(Cn1c(=O)n(Cc2cccc(Cl)c2)c(=O)c2ccccc21)Nc1ccc2c(c1)CCC2,-4%,0.62
CCC(C)CC(=O)NC(CO)c1cc(F)c(F)c(F)c1 (stereo not given),-3%,0.3
CNC(=O)C(c1ccccc1)C(C(=O)NC)c1cccc2ccccc12 (stereo not given),36%,-5.25
